Results on 24 compounds are retold here after ChEMBL document CHEMBL4888484, “Replenishing the malaria drug discovery pipeline: Screening and hit evaluation of the MMV Hit Generation Library 1 (HGL1) against asexual blood stage Plasmodium falciparum ,using a nano luciferase reporter read-out” (2022).

Hit rate of the full screen: of about 150,000 compounds, about 540 (0.36%) showed an effect of 50% or more. The list shows a part of the results.

The subject of this assay is Plasmodium falciparum. Kind of assay: Primary screen in NF54 nanoGlo assay, in single point, at 2uM, 72h; a lower Z score goes with more inhibition. Type of assay: functional, Erythrocyte. The conditions noted are these: timepoint 72 hour.
The % Inhibition is the relative decrease from the control value, in per cent. As for `Cn1cc(NC(=O)C(=O)NCC2(c3ccc(F)cc3F)CC2)cn1`, the “% Inhibition” value is listed as 30% and the Z score was -0.15.
Regarding `COc1ccc(CC(=O)N[C@H]2CC(C)(C)Cc3c2cnn3-c2ccccc2C)cc1OC`, the “% Inhibition” value is on record as -11% and the Z score worked out at 1.34.
For `O=C1C[C@]2(C(=O)Nc3c(Cl)cccc32)c2cn[nH]c2N1`, the “% Inhibition” value is recorded as -2% and the Z score was determined as 0.21.
With `COc1ccc(C[C@@H]2C3=C(CCCC3)CCN2C(=O)c2ccnn2C)cc1`, the “% Inhibition” value is recorded as -7% and the Z score amounted to 1.33.
`NC(=O)c1nsc2c(=O)n(CC(=O)NCc3ccccc3Cl)cnc12`: the “% Inhibition” value is given as -5% and the Z score was 0.91.
For the compound `O=C(c1ccccc1)N(CC1CCCO1)CC1CN(C(=O)c2ccccc2Cl)CCO1` (stereo not drawn), the “% Inhibition” value is -2% and the Z score worked out at 0.26.
Take `Cc1cc(NC(=O)[C@@H]2CCCc3ccccc32)nc(=O)[nH]1`: the “% Inhibition” value is reported as -6% and the Z score turned out to be 0.7.
Take `O=C1N[C@H]2CC[C@@H]1CN(C(=O)c1ccc(-c3cccc4ccnn34)cc1)C2`: the “% Inhibition” value is reported as -8% and the Z score came out at 1.31.
Consider `O=C(c1nc2ccccc2s1)N1CC(c2nc(-c3ncccn3)no2)C1`, for which the “% Inhibition” value is on record as -4% and the Z score is reported as 0.73.
Consider `O=C(c1csc2cncn12)N1CCn2nc(C3CC3)cc2C1`, for which the “% Inhibition” value is -1% and the Z score turned out to be 0.21.
The corresponding values for `COc1ccc2c(C3CCN(C(C)=O)CC3)noc2c1` are 3% and -0.4.
The corresponding values for `Cc1n[nH]cc1NC(=O)Nc1nccs1` are -3% and 0.37.
As for `COCCS(=O)(=O)Nc1c(F)cc(F)cc1Br`, the “% Inhibition” value was -8% and the Z score came out at 0.8.
For `Cc1n[nH]cc1CNC(=O)C1CC(=O)N(C)C1c1cccc(Cl)c1` (stereo not drawn), in that order: -3% and 0.31.
As for `COc1cccc(-c2cc(C(=O)NCc3ccco3)c3cc(Br)cc(C)c3n2)c1`, the “% Inhibition” value is on record as -7% and the Z score turned out to be 0.92.
For the compound `Cc1onc(N)c1S(=O)(=O)NCc1ccco1`, the “% Inhibition” value is -21% and the Z score is given as 1.83.
Consider `Cc1nnsc1C(=O)NC[C@H]1CCCN(CC(C)C)C1`, for which the “% Inhibition” value was -17% and the Z score worked out at 1.96.
With `CCN(C(=O)c1cnc(C(=O)OC(C)(C)C)cn1)C1CCCC1`, the “% Inhibition” value was 2% and the Z score is -0.3.
`CCN=C(NCCCOCCOC)NCc1ccc(F)cc1`: the “% Inhibition” value is -13% and the Z score is given as 1.19.
Regarding `Cc1cc(C)n(CCN(C)CC(C)(C)CN2CCCC2)n1`, the “% Inhibition” value came out at 10% and the Z score was -1.26.
As for `O=C(CNC(=O)c1ccc(F)cc1F)Nc1ccc2nncn2c1`, the “% Inhibition” value is 4% and the Z score was -0.42.
Turning to `O=C1CN(C(=O)c2csc(C3CCCCC3)n2)c2ccncc2N1`, the “% Inhibition” value is listed as -3% and the Z score is listed as 0.4.
Take `NC(=O)[C@]1(O)CCN(C(=O)Nc2ccc3c(c2)C(=O)CCCC3)C1`: the “% Inhibition” value was -11% and the Z score is on record as 2.23.
For `CCN(Cc1cnn(CC)c1)C(=O)c1cn2c(n1)C(=O)N(CC)CC2`, the “% Inhibition” value is reported as -7% and the Z score was 0.92.
